Drawing on PMC10726135, this text covers binding signal (log2 normalized intensity) for 73 sequences.

The other results are listed elsewhere or left out. At the low end of the ranking, values are background and their order means little. Measured with an extract: partners may take part in the binding.

In this experiment the target is T1, HNF4alpha2 (COS-7 nuclear extract) (UniProt P41235).
T1 sequence: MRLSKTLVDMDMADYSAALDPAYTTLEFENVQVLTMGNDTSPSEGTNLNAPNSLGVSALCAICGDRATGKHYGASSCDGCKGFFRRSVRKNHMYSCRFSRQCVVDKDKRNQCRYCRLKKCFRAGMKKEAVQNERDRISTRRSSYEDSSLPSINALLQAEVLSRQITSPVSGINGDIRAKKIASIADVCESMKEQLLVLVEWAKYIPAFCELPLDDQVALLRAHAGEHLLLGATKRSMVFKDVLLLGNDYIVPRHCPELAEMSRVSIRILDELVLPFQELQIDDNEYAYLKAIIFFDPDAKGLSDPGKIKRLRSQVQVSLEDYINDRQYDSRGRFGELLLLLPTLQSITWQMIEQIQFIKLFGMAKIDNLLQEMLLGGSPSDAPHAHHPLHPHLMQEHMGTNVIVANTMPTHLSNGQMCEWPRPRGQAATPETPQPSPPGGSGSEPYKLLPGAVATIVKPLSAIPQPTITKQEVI
Briefly: protein-binding microarray. To be noted: COS-7 nuclear extract on double-stranded Agilent 4x180k PBM; binding buffer, salt, pH and temperature not given; high values mean tight binding; double strand, one strand shown; sequences stand for … in …GCCTAGGGAGATTAGAGTATCGGTCGA
In the case of CATTGCATGTGCATTTCACAATAGGGTTCA, the binding signal (log2 normalized intensity) was found to be 2.46.
Regarding CTCTCCCTCCAGGCCCCAGCCACGCCCTCT, the binding signal (log2 normalized intensity) was 3.65.
Regarding AGCTTTATCTCTCCCCCACCACTGCTTCCT, the binding signal (log2 normalized intensity) was 3.82.
With GCATCAGCCGGTGCAAAGGCCTTAAAGTGT, the binding signal (log2 normalized intensity) is -0.275.
With GACCTTTGGACTTGATAGAGTTTAAGTCTT, the binding signal (log2 normalized intensity) was determined as 6.99.
Regarding TTCTCCAGGAAGTTCAGGCCTCGGCTTCAT, the binding signal (log2 normalized intensity) is -0.98.
For TGCAGCCCTGCCACTCTTTTTTAGACTTTG, the binding signal (log2 normalized intensity) turned out to be 3.72.
Take TCAGGTGTTGCTCTCTTGCCATTCGTGGAT: the binding signal (log2 normalized intensity) came out at 1.29.
With CTATTTGCTAATGTCCTTTGGAGTGCTTTC the figure was 2.17.
With GTTAGGTTGTGATACCCTCATTTTAGAGAT, the binding signal (log2 normalized intensity) is 0.582.
TTGGACTCTATAGCCTATGCTTTGTATTTT: the binding signal (log2 normalized intensity) turned out to be 2.66.
With GAGGGATTACCCTATGTCCCCCGACCCGCC the figure was 4.97.
As for ATTTGCCCTGAAGACATGAAAAGTGGAATG, the binding signal (log2 normalized intensity) is 1.6.
With TCTTTAAGGACCACATCAAAGGTCATCTCT, the binding signal (log2 normalized intensity) amounted to 4.15.
As to GAGAAGAAATGATGGGTGCCACTTCTGAGC, the binding signal (log2 normalized intensity) was -1.19.
For the sequence GTGCGTTCATCTCACAGAGTGGAGTCTTCC, the binding signal (log2 normalized intensity) was -0.712.
For TGCAGCAAAGTCCAGGCATACTTCCTGCTC, the binding signal (log2 normalized intensity) is -1.14.
In the case of ACAAGAATGGTCATTCTCTGTTGCATGGTT, the binding signal (log2 normalized intensity) was 0.97.
Take GGCTTTAGAGTTGTAGCTCTCAGCTCCTAC: the binding signal (log2 normalized intensity) was -1.06.
Turning to TGGGAGTTGTGGTCCGCAGGGCTGCCTCGC, the binding signal (log2 normalized intensity) was -1.12.
Regarding GGTGGGCACCCCTGCCCCCATGTTGTTCAA, the binding signal (log2 normalized intensity) turned out to be 3.7.
As for CCCTATTGGGCTAGCCGCTCCTCCCACGTC, the binding signal (log2 normalized intensity) is -1.1.
With CCGCTGATCCCGGGAGGGAGAGAAGGACAT, the binding signal (log2 normalized intensity) was -1.27.
With ACTTTCATCTGAGTCTCAGCAATTAACAGG the figure was 0.82.
AGTGTTTCAAAGGAGTGTCTTTCTCCTTGA: the binding signal (log2 normalized intensity) was determined as 1.09.
For the sequence TAATAACAGACCATGCCATGCATTTCAGAA, the binding signal (log2 normalized intensity) was -1.
With ATTCCTAAGTTCCAAAGGCCATCCACATTC the figure was 1.84; with CATTCCTGCACAGGACTGCTCTCTACTCAG, -1.14; with CTTCGCAGCCCAGTGGTAATGGAGCTGAAA, -1.08.
For GCCCCAGGTGAACCAGGGTGCAATTCGCAT, the binding signal (log2 normalized intensity) is -0.848.
As for TATTTGATGATGAAGCAACATTAAACACTA, the binding signal (log2 normalized intensity) is -1.16.
With TCACTATCTGGGCCAAGGCAGATATACCAG, the binding signal (log2 normalized intensity) was -1.23.
Regarding GTGTGACTGAGGGCTGACATGTCTTCTCTC, the binding signal (log2 normalized intensity) was 0.0277.
In the case of CACCCTTTTTTTTCTTTCTTTTCCCAAACC, the binding signal (log2 normalized intensity) was 2.13.
In the case of CAGCTTCATTCCAGCCCCATTCTGTGCTGG, the binding signal (log2 normalized intensity) is -1.08.
With AAGGCCTTTCATACGTTTAACAGTTCCTCC the figure was -0.815; with AGAGGAATTGTTCAACATGGTGACTCTAGT, -0.00599.
In the case of TGCGAGGTTACAGGGTTCAACACGTGGTAT it was 2.24; in that of AGACCTTTGGGTAGGAATAGAGCTCTAAAC, 0.147; in that of CTTCCAAGGCTGCAAGCAAACCTGCCCTTT, 3.84.
Regarding CTATCTCAGATAGCTTTAGCCGGACTTTGT, the binding signal (log2 normalized intensity) was 5.18.
In the case of GGCCAACACCAAGCAAGCTCTGCAATAGAG, the binding signal (log2 normalized intensity) is -1.18.
In the case of GAATCCAGGCCAACTGGAAGTCCAGCATTC, the binding signal (log2 normalized intensity) is -1.05.
Turning to CCTCCAGCTCTTTTGAACCCAAGGCCAAAC, the binding signal (log2 normalized intensity) was determined as 0.902.
As to TGTGCACAGGGTGTGGCTTCCAAGGGGAAT, the binding signal (log2 normalized intensity) is -0.711.
For the sequence CAAGGGCAGAGTCCTGGGGAGGGTAAGCAT, the binding signal (log2 normalized intensity) was -1.25.
In the case of TTATCTGAGACTCAAGGCAAGTTGCTTCCA, the binding signal (log2 normalized intensity) was -0.884.
With TATGTCTGATGAATAGAAAGAGGTCAATGT the figure was 3.05.
On to CAAAGAATGGAAGGCAGTGTTCCAAAGTGT, for which the binding signal (log2 normalized intensity) came out at 1.35.
With CAAGTATTCAAGAAAGGGGCAAAGTTTATG, the binding signal (log2 normalized intensity) came to 2.34.
On to TGCTGGCATCTCATTACTGACAGAGATCAA, for which the binding signal (log2 normalized intensity) is -1.3.
Take CTATAAACTTGGTTACAGGACCAGGTGTAG: the binding signal (log2 normalized intensity) was determined as 0.0268.
In the case of CAGGGCAGGGTATGCCTGACTGTAAGAAGT it was -0.976; in that of TTTATTTGCTTATAGCTCAAAGTCCACCAA, 5.7; in that of AATGAATATTCAGACGCATGACCTCAACTC, 0.0483.
With AGCCAGTGATTCAACTCTGACCCATAATAA the figure was 1.87; with CCATCTATGCACTCTCACCTTGGGGGCTGC, -0.921.
In the case of CTTATCAGTAGTTCTCCTTTCTGCCCTTTG it was 3.65; in that of ATGCTGATAAGGGCCACAGATGGCCTCACT, -0.892; in that of AAGTGCTAGCTTGGTCTGAACCTCATCTGT, 1.06.
In the case of ACTGGATGGTGCCTATTTGTCCCTGACCAA, the binding signal (log2 normalized intensity) came out at 0.57.
Regarding GTGTAACTATTACTGGACAGCCAGCTGGTA, the binding signal (log2 normalized intensity) was 0.874.
In the case of CAAGCAATGGAGAGGATTTTGGAATGTCGC it was 0.496; in that of TGTACATAATCTGGACCCAAACGAATGGGC, 0.621.
Regarding TTTTTGGTTCCCCTTCCCCCAACAGGGCTC, the binding signal (log2 normalized intensity) worked out at 4.44.
As to AGCAGTGCCCAAAGCCCAAGGGATGTCCAT, the binding signal (log2 normalized intensity) is -1.13.
Take TTTAAGTGGGGTCAAAGGGTACAAATTCCA: the binding signal (log2 normalized intensity) was found to be 4.76.
Regarding TCGGTAGGCTTAGGCCAGGCGGAGCACACC, the binding signal (log2 normalized intensity) is -1.2.
With GGGCAAGTTACTTAAGCCATCTGCTGCCTC the figure was -0.98.
For GGTGAGGGTTACAGGTGGACAAACAGGCTG, the binding signal (log2 normalized intensity) was -0.829.
Consider TCAGTAAATCTGCACTTTACGTAAGATAAG, for which the binding signal (log2 normalized intensity) is -1.21.
Take GGTCGCGCCGGGCGCCGCTCTGAGTGACCT: the binding signal (log2 normalized intensity) came to 2.65.
GATAAGGATTCCTGGAATGTTTGAGCTGGG: the binding signal (log2 normalized intensity) was -0.779.
